# According to the supplement of paper PMC8728848:
# This is one part of the list.
# B1: Gal 3 (Homo sapiens), P17931 (protein)
# chain: MADNFSLHDALSGSGNPNPQGWPGAWGNQPAGAGGYPGASYPGAYPGQAPPGAYPGQAPPGAYHGAPGAYPGAPAPGVYPGPPSGPGAYPSSGQPSAPGAYPATGPYGAPAGPLIVPYNLPLPGGVVPRMLITILGTVKPNANSILDFQRGNDVAFHFNPRFNENNRRVIVCNTKLDNNWGREERQSVFPFESGKPFKIQVLVEPDHFKVAVNDAHLLQYNHRVKKLNEISKLGISGDIDLTSASYTMI
# Legend:
# Assay in all cases: glycan array binding signal (z-score within array); higher = stronger binding
# Conditions in all cases: glycan notation: IUPAC condensed, linker removed; mutation: R144S
# [1] = target: GalNAc(b1-3)Gal(a1-4)Gal(b1-4)GlcNAc
# Outline: (§1)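 Glycan array data were curated from 3228 arrays in the Consortium for Functional Glycomics database and kept only where the protein sequence was available. Glycan names were converted to IUPAC-condensed notation, and columns mapping to the same glycan were averaged. The binding signal is a within-array Z-score, averaged across arrays of the same protein sequence at different concentrations or buffers and across linkers. Negative Z-scores can be read as non-binding.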
# [2] = target: GalNAc(b1-3)Gal(a1-4)Gal(b1-4)GlcNAc(b1-3)Gal(b1-4)Glc
# Outline: as §1
# [3] = target: GalNAc(b1-3)Gal(a1-6)Gal(b1-4)Glc
# Outline: as §1
# GalNAc(b1-3)GalNAc = target: GalNAc(b1-3)GalNAc
# Outline: as §1
# GalNAc(b1-4)GlcNAc = target: GalNAc(b1-4)GlcNAc
# Outline: as §1
# [4] = target: GalNAc(b1-4)GlcNAc(b1-2)Man(a1-3)[GalNAc(b1-4)GlcNAc(b1-2)Man(a1-6)]Man(b1-4)GlcNAc(b1-4)GlcNAc
# Outline: as §1
# Glc(a1-4)Glc = target: Glc(a1-4)Glc
# Outline: as §1
# Glc(a1-6)Glc(a1-6)Glc = target: Glc(a1-6)Glc(a1-6)Glc
# Outline: as §1
# Glc(b1-4)Glc = target: Glc(b1-4)Glc
# Outline: as §1
# Glc(b1-6)Glc = target: Glc(b1-6)Glc
# Outline: as §1
# GlcA(b1-3)Gal = target: GlcA(b1-3)Gal
# Outline: as §1
# GlcA(b1-3)GlcNAc = target: GlcA(b1-3)GlcNAc
# Outline: as §1
# GlcA(b1-6)Gal = target: GlcA(b1-6)Gal
# Outline: as §1
# [5] = target: GlcNAc(a1-3)Gal(b1-4)GlcNAc
# Outline: as §1
# [6] = target: GlcNAc(a1-4)Gal(b1-3)GlcNAc
# Outline: as §1
# [7] = target: GlcNAc(a1-4)Gal(b1-4)GalNAc
# Outline: as §1
# [8] = target: GlcNAc(a1-4)Gal(b1-4)GlcNAc
# Outline: as §1
# [9] = target: GlcNAc(a1-4)Gal(b1-4)GlcNAc(b1-3)Gal(b1-4)Glc
# Outline: as §1
# [10] = target: GlcNAc(a1-4)Gal(b1-4)GlcNAc(b1-3)Gal(b1-4)GlcNAc
# Outline: as §1
# [11] = target: GlcNAc(a1-4)Gal(b1-4)GlcNAc(b1-3)Gal(b1-4)GlcNAc(b1-3)Gal(b1-4)GlcNAc
# Outline: as §1
# [12] = target: GlcNAc(a1-4)Gal(b1-4)GlcNAc(b1-3)Gal(b1-4)[Fuc(a1-3)]GlcNAc(b1-3)Gal(b1-4)[Fuc(a1-3)]GlcNAc
# Outline: as §1
# [13] = target: GlcNAc(a1-6)Gal(b1-4)GlcNAc
# Outline: as §1
# [14] = target: GlcNAc(b1-2)Gal(b1-3)GalNAc
# Outline: as §1
# [15] = target: GlcNAc(b1-2)Man(a1-3)[GlcNAc(b1-2)Man(a1-6)]Man(b1-4)GlcNAc(b1-4)GlcNAc
# Outline: as §1
# [16] = target: GlcNAc(b1-2)Man(a1-3)[GlcNAc(b1-2)Man(a1-6)]Man(b1-4)GlcNAc(b1-4)[Fuc(a1-6)]GlcNAc
# Outline: as §1
# [17] = target: GlcNAc(b1-2)[GlcNAc(b1-4)]Man(a1-3)[GlcNAc(b1-2)Man(a1-6)]Man(b1-4)GlcNAc(b1-4)GlcNAc
# Outline: as §1
# GlcNAc(b1-3)Gal = target: GlcNAc(b1-3)Gal
# Outline: as §1
# [18] = target: GlcNAc(b1-3)Gal(b1-3)GalNAc
# Outline: as §1
# GlcNAc(b1-3)Gal(b1-4)Glc = target: GlcNAc(b1-3)Gal(b1-4)Glc
# Outline: as §1
# [19] = target: GlcNAc(b1-3)Gal(b1-4)GlcNAc
# Outline: as §1
# [20] = target: GlcNAc(b1-3)Gal(b1-4)GlcNAc(b1-3)Gal(b1-4)GlcNAc
# Outline: as §1
# GlcNAc(b1-3)GalNAc = target: GlcNAc(b1-3)GalNAc
# Outline: as §1
# GlcNAc(b1-3)Man = target: GlcNAc(b1-3)Man
# Outline: as §1
# [21] = target: GlcNAc(b1-3)[GlcNAc(b1-4)][GlcNAc(b1-6)]GlcNAc
# Outline: as §1
# [22] = target: GlcNAc(b1-3)[GlcNAc(b1-6)]Gal(b1-4)GlcNAc
# Outline: as §1
# [23] = target: GlcNAc(b1-3)[GlcNAc(b1-6)]GalNAc
# Outline: as §1
# [24] = target: GlcNAc(b1-4)Gal(b1-4)GlcNAc
# Outline: as §1
binder,measurement,setting,value
B1,glycan array binding signal (z-score),[1],-0.355
same,glycan array binding signal (z-score),[2],0.182
same,glycan array binding signal (z-score),[3],-0.358
same,glycan array binding signal (z-score),GalNAc(b1-3)GalNAc,-0.354
same,glycan array binding signal (z-score),GalNAc(b1-4)GlcNAc,-0.344
same,glycan array binding signal (z-score),[4],-0.353
same,glycan array binding signal (z-score),Glc(a1-4)Glc,-0.361
same,glycan array binding signal (z-score),Glc(a1-6)Glc(a1-6)Glc,-0.357
same,glycan array binding signal (z-score),Glc(b1-4)Glc,-0.357
same,glycan array binding signal (z-score),Glc(b1-6)Glc,-0.357
same,glycan array binding signal (z-score),GlcA(b1-3)Gal,-0.359
same,glycan array binding signal (z-score),GlcA(b1-3)GlcNAc,-0.36
same,glycan array binding signal (z-score),GlcA(b1-6)Gal,-0.359
same,glycan array binding signal (z-score),[5],-0.358
same,glycan array binding signal (z-score),[6],-0.356
same,glycan array binding signal (z-score),[7],-0.349
same,glycan array binding signal (z-score),[8],-0.355
same,glycan array binding signal (z-score),[9],-0.356
same,glycan array binding signal (z-score),[10],0.351
same,glycan array binding signal (z-score),[11],1.56
same,glycan array binding signal (z-score),[12],-0.34
same,glycan array binding signal (z-score),[13],-0.347
same,glycan array binding signal (z-score),[14],-0.364
same,glycan array binding signal (z-score),[15],-0.358
same,glycan array binding signal (z-score),[16],-0.361
same,glycan array binding signal (z-score),[17],-0.341
same,glycan array binding signal (z-score),GlcNAc(b1-3)Gal,-0.364
same,glycan array binding signal (z-score),[18],-0.356
same,glycan array binding signal (z-score),GlcNAc(b1-3)Gal(b1-4)Glc,-0.36
same,glycan array binding signal (z-score),[19],-0.358
same,glycan array binding signal (z-score),[20],1.29
same,glycan array binding signal (z-score),GlcNAc(b1-3)GalNAc,-0.357
same,glycan array binding signal (z-score),GlcNAc(b1-3)Man,-0.359
same,glycan array binding signal (z-score),[21],-0.358
same,glycan array binding signal (z-score),[22],-0.352
same,glycan array binding signal (z-score),[23],-0.361
same,glycan array binding signal (z-score),[24],-0.364
